Test results published in PMC5892938.
Some of the results follow. At the low end of the ranking the order means little.

These sequences were tested against GST-SBP-SLBP (stem-loop binding protein) (UniProt Q14493) (assay: targeted RNA Bind-n-Seq). Details: RBNS binding buffer: 25 mM Tris pH 7.5, 150 mM KCl, 3 mM MgCl2, 0.1% Tween, 0.5 mg/mL BSA, 1 mM DTT; 27 nM protein, 750 pM RNA pool; temperature not stated; high values mean tight binding.
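Note: DESeq read counts versus GST-SBP nonspecific binding control pulldown.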

Row | Sequence | binding signal (log2 fold change)
1 | GGUCACGUCUCAAUCAACUCAACUUCAGGAGUUUGCUCCUGCAUUCUCAACAGCUCGCAGUCAAG | -0.149
2 | GGUCACGUCUCAAUCAACUCCAUAGAGGGGGGGAAAACCCCUUUACCCUCACAUUCAACAGCUCGCAGUCAAG | 0.32
3 | GGUCACGUCUCAAUCAACUCUCAAGAGGGGGGGAAAACCCCUUUGCCCUCAUUAUCAACAGCUCGCAGUCAAG | 0.288
4 | GGUCACGUCUCAAUCAACUCUUCAGAGGGGGGGAAAACCCCUUUGCCCUCACAAUCAACAGCUCGCAGUCAAG | 0.147
5 | GGUCACGUCUCAAUCAACUCCCAAAGGUUUUUUUUAGAGCCACCCAUCAACAGCUCGCAGUCAAG | 0.324
6 | GGUCACGUCUCAAUCAACUCAUCCUCCAGGGAAAACCCUGGCUAACUCAACAGCUCGCAGUCAAG | 0.102
7 | GGUCACGUCUCAAUCAACUCCCUCGAGGGGGGGAAAACCCCUUUACCCUCUUCAUCAACAGCUCGCAGUCAAG | -0.0827
8 | GGUCACGUCUCAAUCAACUCAGUCCCAGGAGUUUGCUCCUGCUUAUUCAACAGCUCGCAGUCAAG | -0.0718
9 | GGUCACGUCUCAAUCAACUCAUUCCCCAGGGAAACCCCUGGCAAUUUCAACAGCUCGCAGUCAAG | 0.108
10 | GGUCACGUCUCAAUCAACUCUUCUUCCAGGGAAAACCCUGGUUAACUCAACAGCUCGCAGUCAAG | 0.0635
11 | GGUCACGUCUCAAUCAACUCAGUUCCCAGGGAAAUCCCUGGCUUUUUCAACAGCUCGCAGUCAAG | -0.0744
12 | GGUCACGUCUCAAUCAACUCAAUCCCCAGGGAAACCCCUGGCAUUCUCAACAGCUCGCAGUCAAG | 0.134
13 | GGUCACGUCUCAAUCAACUCUUUUCCCAGGGAAAUCCCUGGUUAUUUCAACAGCUCGCAGUCAAG | -0.103
14 | GGUCACGUCUCAAUCAACUCAACUUCAGGAGUUUUCUCCUGUAAACUCAACAGCUCGCAGUCAAG | 0.13
15 | GGUCACGUCUCAAUCAACUCAUUUUCAGGAGUUUACUCCUGUUUUUUCAACAGCUCGCAGUCAAG | -0.0154
16 | GGUCACGUCUCAAUCAACUCAAGUCCAGGAGUUUACUCCUGUUAUUUCAACAGCUCGCAGUCAAG | 0.142
17 | GGUCACGUCUCAAUCAACUCUAUAGAGGGGGGGAAAACCCCUUUACCCUCAACAUCAACAGCUCGCAGUCAAG | -0.0627
18 | GGUCACGUCUCAAUCAACUCUUUCCCAGGAGUUUACUCCUGUAAUGUCAACAGCUCGCAGUCAAG | 0.203
19 | GGUCACGUCUCAAUCAACUCAACUUCAGGAGUUUGCUCCUGCUAUGUCAACAGCUCGCAGUCAAG | 0.282
20 | GGUCACGUCUCAAUCAACUCUUUUCCCAGGGAAAGCCCUGGCAAUUUCAACAGCUCGCAGUCAAG | 0.113
